The results in this text go back to the BET-seq Pho4 binding data (Le et al. 2018).

Some of the results follow. The energies were worked out here from pooled read counts, against the library average; single values are noisy.

In this assay the target is T1, Pho4 (S. cerevisiae) (UniProt P07270).
T1 sequence: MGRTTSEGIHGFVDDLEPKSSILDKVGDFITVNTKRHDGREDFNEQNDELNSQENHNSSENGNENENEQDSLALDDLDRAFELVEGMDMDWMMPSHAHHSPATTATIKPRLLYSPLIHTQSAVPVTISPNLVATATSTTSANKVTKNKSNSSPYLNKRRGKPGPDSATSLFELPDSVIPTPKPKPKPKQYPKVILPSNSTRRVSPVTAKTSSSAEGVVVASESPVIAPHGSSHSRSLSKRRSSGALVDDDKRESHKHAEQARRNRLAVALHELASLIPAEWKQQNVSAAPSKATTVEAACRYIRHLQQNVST
Briefly: relative binding free energy (BET-seq); higher = weaker binding. To be noted: reference: library average.
As to AGTGGCACGTGGGCAT, the “relative binding free energy” value was -0.2 kcal/mol.

As for GTTGGCACGTGCGGTG, the “relative binding free energy” value is -0.04 kcal/mol. As for TTCAGCACGTGACGTG, the figure is 0.16 kcal/mol; as for TTGTTCACGTGTACGC, 0.24 kcal/mol; as for TCTGTCACGTGTATAT, -0.03 kcal/mol. The result for ATAATCACGTGTTAAG reads 0.11 kcal/mol; that for TTCTTCACGTGTGGTT, 0.37 kcal/mol. On to TTTCACACGTGATTAT, for which the “relative binding free energy” value is 0.28 kcal/mol. As for GTGTGCACGTGTTCTG, the figure is 0.05 kcal/mol; as for TATGGCACGTGAGTAA, 0.13 kcal/mol. As for ATGGTCACGTGTAGGC, the figure is 0.18 kcal/mol. As to TAAGTCACGTGGGCTG, the “relative binding free energy” value was found to be 0.04 kcal/mol. Consider CGGGACACGTGGGGCT, for which the “relative binding free energy” value is -0.17 kcal/mol. As for AATTACACGTGGGCAG, the figure is 0.2 kcal/mol. As for ATAGTCACGTGAGCGG, the figure is 0.29 kcal/mol; as for TTTGTCACGTGTGGAC, 0.08 kcal/mol; as for GGGAGCACGTGGGTCA, -0.23 kcal/mol. As for TAAGTCACGTGTAGTT, the figure is 0.17 kcal/mol; as for TGGGGCACGTGTCTCG, -0.1 kcal/mol; as for GGAGGCACGTGGCATG, -0.19 kcal/mol. On to CGTGGCACGTGAGGAT, for which the “relative binding free energy” value is 0.17 kcal/mol. Turning to ATCAGCACGTGTTGGA, the “relative binding free energy” value was -0.09 kcal/mol. As for GTCGTCACGTGAGTCT, the figure is 0.34 kcal/mol; as for AGATGCACGTGGGGCG, -0.07 kcal/mol.

Take CAAGGCACGTGTTGAG: the “relative binding free energy” value worked out at 0.01 kcal/mol. As for GGTGGCACGTGACCGT, the figure is -0.08 kcal/mol; as for TGTTACACGTGGCTGA, 0.06 kcal/mol; as for CAATTCACGTGTATGT, 0.16 kcal/mol.

As to GGTAACACGTGTGCGT, the “relative binding free energy” value was determined as 0.03 kcal/mol. As for AGGATCACGTGTTGGT, the figure is 0.22 kcal/mol; as for ATATTCACGTGCTGTA, 0.11 kcal/mol.

GGCATCACGTGGAGGT: the “relative binding free energy” value is 0.13 kcal/mol. As for GGGGGCACGTGAACTG, the figure is 0.06 kcal/mol; as for AGGTTCACGTGGCATA, 0.22 kcal/mol.

Consider CTTAGCACGTGGATGG, for which the “relative binding free energy” value is -0.16 kcal/mol. As for TGCTGCACGTGTATGT, the figure is 0.18 kcal/mol; as for GGGGGCACGTGTGAGA, 0.09 kcal/mol; as for ATTGGCACGTGTATTT, 0.03 kcal/mol.

Regarding TGTGACACGTGTAGGA, the “relative binding free energy” value turned out to be 0.18 kcal/mol. The result for TGGGTCACGTGTATCT reads 0.2 kcal/mol; that for AGCGCCACGTGCGGGG, -0.14 kcal/mol; that for TTCGGCACGTGGAGAT, 0.08 kcal/mol. For the sequence TGTGCCACGTGGTGCT, the “relative binding free energy” value was -0.27 kcal/mol. As for TCGAGCACGTGGGGTT, the “relative binding free energy” value is -0.19 kcal/mol. For AGAATCACGTGGTTAT, the “relative binding free energy” value came out at 0.1 kcal/mol.

In the case of GGTGTCACGTGCTAGG, the “relative binding free energy” value was 0.02 kcal/mol. Turning to ATGGACACGTGGGCGG, the “relative binding free energy” value was -0.15 kcal/mol. As for AGGGACACGTGGCTTT, the figure is -0.07 kcal/mol; as for GATTTCACGTGTTAAT, 0.41 kcal/mol; as for GGTTACACGTGAGAGA, 0.53 kcal/mol.

Regarding TTGTCCACGTGGTAAG, the “relative binding free energy” value is 0.11 kcal/mol. In the case of TCGGTCACGTGAGGAG, the “relative binding free energy” value amounted to 0.29 kcal/mol. The result for ATTTTCACGTGCTATG reads 0.09 kcal/mol; that for GAATACACGTGGTTGG, 0 kcal/mol; that for GTTGTCACGTGTTTTT, 0.12 kcal/mol. As for GACTGCACGTGTATTG, the figure is 0.1 kcal/mol; as for TGAAACACGTGGCGGG, -0.11 kcal/mol. In the case of AGGTACACGTGTCTTT, the “relative binding free energy” value came to 0.08 kcal/mol. As for GTGTTCACGTGTAATG, the figure is 0.24 kcal/mol. The result for TGTGGCACGTGAAAAG reads 0.1 kcal/mol. The result for TCTGTCACGTGGGGAC reads 0.02 kcal/mol; that for TTGTACACGTGGAAAA, 0.28 kcal/mol; that for GGGTACACGTGAGATT, 0.36 kcal/mol. For GGGCACACGTGCTGGG, the “relative binding free energy” value was determined as 0.02 kcal/mol. For the sequence GCTTTCACGTGTGTAT, the “relative binding free energy” value came to 0.33 kcal/mol. The result for TTATTCACGTGGGGTC reads 0.11 kcal/mol; that for CGATTCACGTGGAGGT, 0.45 kcal/mol. As for CTGTGCACGTGGTAGA, the figure is -0.16 kcal/mol. As for CTTGTCACGTGAAAGT, the figure is 0.18 kcal/mol; as for CGTGACACGTGGGAGT, -0.06 kcal/mol. On to TTTGGCACGTGTGCTC, for which the “relative binding free energy” value is -0.19 kcal/mol.

Take AGTAGCACGTGTTTAT: the “relative binding free energy” value is -0.04 kcal/mol. The result for TATCGCACGTGTGGAT reads -0.01 kcal/mol. As for TGCTTCACGTGGGTTT, the figure is 0.27 kcal/mol. Turning to ATAGCCACGTGTTTGT, the “relative binding free energy” value is -0.07 kcal/mol. The result for GGACACACGTGTTAGG reads 0.13 kcal/mol; that for CTGAGCACGTGTTATT, -0.09 kcal/mol. The result for AATATCACGTGAGGGA reads 0.39 kcal/mol; that for GTGAGCACGTGATATT, 0.07 kcal/mol; that for TGCGTCACGTGAGGGT, 0.18 kcal/mol. The result for TAATACACGTGATTAG reads 0.22 kcal/mol. For AGGGTCACGTGAGCTG, the “relative binding free energy” value was determined as 0.35 kcal/mol. The result for GTTTCCACGTGCAGGG reads 0.05 kcal/mol; that for TGGTTCACGTGGACGC, 0.35 kcal/mol; that for AATGGCACGTGCGGGC, -0.27 kcal/mol. The result for TGAGGCACGTGCGAGT reads -0.14 kcal/mol; that for GCGCGCACGTGGGTGA, -0.2 kcal/mol.

In the case of AGTTTCACGTGAAGGT, the “relative binding free energy” value came to 0.37 kcal/mol.

As for ATTAACACGTGAGGAT, the “relative binding free energy” value was determined as 0.1 kcal/mol. The result for TCTTGCACGTGTGTGT reads 0.03 kcal/mol; that for TGGTGCACGTGGTGAA, -0.04 kcal/mol.

Regarding TTGGTCACGTGCGCGC, the “relative binding free energy” value came to 0.07 kcal/mol.

Consider AATTACACGTGGAATG, for which the “relative binding free energy” value amounted to 0.16 kcal/mol.

For AGGGGCACGTGGATGC, the “relative binding free energy” value was -0.04 kcal/mol.

ATTGACACGTGAAAGG: the “relative binding free energy” value came out at 0.34 kcal/mol.

For the sequence TTTCACACGTGAGTGA, the “relative binding free energy” value was 0.37 kcal/mol. As for TAGCTCACGTGTAAGG, the “relative binding free energy” value amounted to 0.27 kcal/mol. The result for GTGGACACGTGTAGGT reads 0.03 kcal/mol; that for TTCTGCACGTGTTGGT, 0.09 kcal/mol. The result for ATGTCCACGTGTGGGC reads 0.11 kcal/mol; that for GGGTACACGTGTCGAG, 0.18 kcal/mol; that for AGGCCCACGTGTGTTG, -0.1 kcal/mol. As for GGTGTCACGTGAACTT, the figure is 0.34 kcal/mol. Turning to CGTGGCACGTGTCTGA, the “relative binding free energy” value is 0.02 kcal/mol. The result for GGGATCACGTGTAGCT reads 0.21 kcal/mol; that for GAGAACACGTGGGGGG, -0.01 kcal/mol.

For the sequence AAAGTCACGTGTATGA, the “relative binding free energy” value stood at 0.12 kcal/mol. Regarding TGTTGCACGTGCTTTA, the “relative binding free energy” value was -0.09 kcal/mol. As for AAGCTCACGTGGTTGG, the figure is 0.25 kcal/mol. As for GGGTCCACGTGAGGCT, the figure is 0.13 kcal/mol.

In the case of TATGGCACGTGATGCG, the “relative binding free energy” value is -0.02 kcal/mol. The result for TGGGCCACGTGCAGTG reads -0.08 kcal/mol; that for GGAAACACGTGTGGTG, 0.09 kcal/mol. The result for TGATGCACGTGGCTGG reads -0.18 kcal/mol. The result for TGAGTCACGTGAGGCG reads 0.25 kcal/mol.
